This is an account of results in publication PMC4242493.

Some of the results follow. The list includes weakly bound sequences.

The target in this experiment is MaxL homodimer (UniProt P61244). Nature of the experiment: universal protein-binding microarray (PBM). The conditions noted are these: PBS-based mixture, 10 nM His-tagged protein dimer, 2% milk, 200 ng/uL BSA, 50 ng/uL salmon testes DNA, 0.02% TX-100; detection with Alexa 488 anti-His …; high values mean tight binding; most listed sequences are background and not binding sites; double strand, one strand shown.
Sequence of UniProt P61244 (P61244 whole entry): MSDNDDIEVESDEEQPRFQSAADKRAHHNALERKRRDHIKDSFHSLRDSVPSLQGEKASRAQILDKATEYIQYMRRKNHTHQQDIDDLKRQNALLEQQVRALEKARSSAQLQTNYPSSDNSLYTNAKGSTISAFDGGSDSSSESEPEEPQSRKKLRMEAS
Consider CCCCTTAA, for which the binding signal (normalized occupancy) worked out at 0.0759.

As to CTGGACAC, the binding signal (normalized occupancy) amounted to 0.0759. The same measure for TATAGCCA: 0.0847.

Take ATGAATCG: the binding signal (normalized occupancy) is 0.0836.

Regarding AAGACGTA, the binding signal (normalized occupancy) stood at 0.074. The same measure for CTCATCTC: 0.0785; for GATAGATC: 0.0736. The same measure for CGTCTAGA: 0.0685; for CGTCATCC: 0.0813; for GATATGAC: 0.0791. For AATTGTAG the value was 0.0748; for CATGTTCG, 0.0882; for AGCTCCAG, 0.0712.

Regarding TATGTGGA, the binding signal (normalized occupancy) was found to be 0.0827. As for ATTGAGCA, the binding signal (normalized occupancy) stood at 0.0777.

As for GGACTTAA, the binding signal (normalized occupancy) came out at 0.0725. For GATCGCAC the value was 0.0824; for CACGGTTA, 0.0759; for GCGCGCAA, 0.0753. Turning to TAATAGCA, the binding signal (normalized occupancy) amounted to 0.0774. As for ACTTCTTG, the binding signal (normalized occupancy) stood at 0.0738. For ATGCGTAA the value was 0.0848; for ACTTTGAA, 0.0759.

On to CTCGTGCA, for which the binding signal (normalized occupancy) worked out at 0.1. For TGTGCAAA the value was 0.0811. Consider ACTTGAAC, for which the binding signal (normalized occupancy) turned out to be 0.0734. As to ATTCTCGA, the binding signal (normalized occupancy) amounted to 0.0808. For AATATAGG the value was 0.0788; for CCGCGAGG, 0.0805. For CAGATCGG the value was 0.0727; for GGGCCGTA, 0.0752. For AGAGTTGC the value was 0.0698. For the sequence CAGCTTGC, the binding signal (normalized occupancy) came to 0.0704.

For CCGATCCC, the binding signal (normalized occupancy) is 0.0702.

For the sequence GCCACCAC, the binding signal (normalized occupancy) was 0.0787. For CAGTGACA the value was 0.0739; for AGATGTAT, 0.0832; for ACTCGTGC, 0.0933.

For ATTGATGG, the binding signal (normalized occupancy) turned out to be 0.0832.

AAAGCGGG: the binding signal (normalized occupancy) was found to be 0.066. The same measure for GTGTTAAA: 0.0743; for ACCGAAAT: 0.0733. As for CACTAACC, the binding signal (normalized occupancy) was found to be 0.0743. For CTGCGCAA the value was 0.0706.

In the case of CGCGAAGA, the binding signal (normalized occupancy) was 0.0698. For GACCTGGA the value was 0.0693; for CGGCGGGC, 0.0663; for AACCTAAG, 0.075. TGTGCTAA: the binding signal (normalized occupancy) amounted to 0.0728. The same measure for CACTCTCC: 0.075; for CCAGTTTA: 0.0753. For the sequence CGTTTGGA, the binding signal (normalized occupancy) was found to be 0.0746.

Regarding ACCGGGCT, the binding signal (normalized occupancy) is 0.071. For AATTAGGC the value was 0.0725.

As for ACTTGATA, the binding signal (normalized occupancy) was determined as 0.0813. The same measure for CAAGTGAA: 0.0702; for AGGGCTAA: 0.0698; for AAGCGGAT: 0.0709. In the case of AACGCATC, the binding signal (normalized occupancy) was 0.0731. In the case of AACAATAA, the binding signal (normalized occupancy) turned out to be 0.0729. Consider CGGTTATA, for which the binding signal (normalized occupancy) was determined as 0.0807. The same measure for TATTCGAA: 0.0795; for AGCGGTGA: 0.0677. As to GGCGGGAC, the binding signal (normalized occupancy) was 0.0729. For CTTGATAA the value was 0.0791. The same measure for AGGGAAAG: 0.0756; for AGTCCCCA: 0.0807; for CGCCGCCG: 0.0677. CCGCTCCA: the binding signal (normalized occupancy) is 0.0719. Turning to CCAACAAG, the binding signal (normalized occupancy) was found to be 0.0776. As to GTGAGCTA, the binding signal (normalized occupancy) came to 0.0825. For the sequence GCCACGGA, the binding signal (normalized occupancy) was 0.0706.

Take CCATATTA: the binding signal (normalized occupancy) was determined as 0.0852. As for ATAGCCTG, the binding signal (normalized occupancy) worked out at 0.0748.

In the case of CACGCGCA, the binding signal (normalized occupancy) worked out at 0.135.

On to ACCTTACG, for which the binding signal (normalized occupancy) was 0.0715.

Turning to CGCATCTA, the binding signal (normalized occupancy) came out at 0.0801. Turning to TAAAGTGA, the binding signal (normalized occupancy) was determined as 0.0797. In the case of CATATCGC, the binding signal (normalized occupancy) worked out at 0.0767. The same measure for AGTGGCAA: 0.0713; for ACGATAAA: 0.0783.

For TATATACA, the binding signal (normalized occupancy) was 0.0825. For TAGTTCGA the value was 0.0719; for GTATTAAC, 0.077; for CACAAGCC, 0.0772. As to AAACCGTG, the binding signal (normalized occupancy) is 0.0731.

With CCTCTCTA, the binding signal (normalized occupancy) amounted to 0.0738. For the sequence CCTGGTAC, the binding signal (normalized occupancy) was determined as 0.0716. The same measure for TCATAGCA: 0.0811; for CCAACTCG: 0.0708. For CCATTTCG the value was 0.0676; for AGAATATC, 0.0765; for AATTTTAT, 0.0731. As to AATGCACA, the binding signal (normalized occupancy) stood at 0.0785. As to ACTCTGTC, the binding signal (normalized occupancy) was determined as 0.0717. The same measure for GCGGCCCA: 0.0704; for ATGACCCG: 0.081. As for TGAAATCA, the binding signal (normalized occupancy) was found to be 0.0708. Consider CTAGAGAC, for which the binding signal (normalized occupancy) stood at 0.0745.

CAGCTGTA: the binding signal (normalized occupancy) was 0.0716.

On to GCTCAGCA, for which the binding signal (normalized occupancy) came to 0.0748. For CTCGGACC, the binding signal (normalized occupancy) is 0.0663. For AGAACTTA the value was 0.0682; for AGTTGTTA, 0.0725; for ATTTACTA, 0.0719.

Consider AATACAGT, for which the binding signal (normalized occupancy) stood at 0.077. For AAGACTAG, the binding signal (normalized occupancy) came out at 0.0711. Take CGATAAAA: the binding signal (normalized occupancy) amounted to 0.0743. The same measure for AGCGGCAT: 0.0766; for ACCATTCT: 0.0753; for GACCCATA: 0.0822. For AAAGGAGG, the binding signal (normalized occupancy) was determined as 0.0697. For AAGAAATA the value was 0.0748.

With GCTGGCCC, the binding signal (normalized occupancy) stood at 0.0684. For GAAACGTA the value was 0.0744; for GGGGGGTA, 0.0894; for GTGCCAAC, 0.0765. The same measure for AGCGCAGG: 0.0685; for ATGAGGGG: 0.0902; for GAATGGTA: 0.08. As to ACTTATAG, the binding signal (normalized occupancy) came out at 0.0808.

Consider GCCTTTAC, for which the binding signal (normalized occupancy) stood at 0.0804. With GCTGTCAA, the binding signal (normalized occupancy) amounted to 0.0731.

For AGGATCTG, the binding signal (normalized occupancy) came out at 0.0765. As for CTCCGGGC, the binding signal (normalized occupancy) amounted to 0.0682.

With ACTGATGA, the binding signal (normalized occupancy) was determined as 0.0724. For ATCCGCCG the value was 0.0699; for GACGAGGA, 0.0731.

As to GGAGGCCA, the binding signal (normalized occupancy) came out at 0.0712. As for CGTCGCAG, the binding signal (normalized occupancy) was determined as 0.0728. Turning to AGTTGTTC, the binding signal (normalized occupancy) is 0.073. As for AACAAAAT, the binding signal (normalized occupancy) was found to be 0.0826.

For GAAGTCCC, the binding signal (normalized occupancy) came out at 0.0754. For CTAGAGCA the value was 0.0702. As for GTGAACCA, the binding signal (normalized occupancy) was found to be 0.0773.

For the sequence ACAGGGGT, the binding signal (normalized occupancy) was found to be 0.0756. For CTTTCAGA the value was 0.0772; for AGTGAAAA, 0.0707; for CACACAGC, 0.0788.

For the sequence GATGGACA, the binding signal (normalized occupancy) worked out at 0.0742. Consider CACAAAGC, for which the binding signal (normalized occupancy) was 0.0707. For GAGTATGC, the binding signal (normalized occupancy) worked out at 0.0816. The same measure for ATCCACCC: 0.0795. Regarding GAGCTAAA, the binding signal (normalized occupancy) was determined as 0.0759. The same measure for CAACTTAG: 0.0721; for AAGCAGTA: 0.0725. For CCGCTTGC the value was 0.0705; for ACATGTTA, 0.0993. CGGGTCCC: the binding signal (normalized occupancy) came out at 0.0721.

On to AAGCTACT, for which the binding signal (normalized occupancy) was 0.0668. Take CACTGGGG: the binding signal (normalized occupancy) came to 0.075.

Consider CATAACAA, for which the binding signal (normalized occupancy) amounted to 0.0809. Regarding AGGAGTTG, the binding signal (normalized occupancy) amounted to 0.0735. As for GAACCCAC, the binding signal (normalized occupancy) turned out to be 0.0754.

Take GAGCCGAC: the binding signal (normalized occupancy) was 0.0664. As to AACCGAGC, the binding signal (normalized occupancy) came out at 0.0653. Consider AGGAACTC, for which the binding signal (normalized occupancy) was 0.0745. As to GCCGCTCA, the binding signal (normalized occupancy) amounted to 0.068.

As for CTTCGGAC, the binding signal (normalized occupancy) was determined as 0.0699. On to AAACGGTC, for which the binding signal (normalized occupancy) came to 0.0768. The same measure for AGATACTC: 0.0831; for ATAGGGGA: 0.0849. As to AGTCATAT, the binding signal (normalized occupancy) turned out to be 0.0903. For AATTTTAC, the binding signal (normalized occupancy) stood at 0.072. The same measure for GCTGCCAC: 0.0765; for AATTTGAT: 0.071; for ATACCCAA: 0.0764. Turning to AGAGAGGG, the binding signal (normalized occupancy) came out at 0.0758. The same measure for AGGGTGAT: 0.0764; for TGTACAAA: 0.0802.

Regarding CATGCTCG, the binding signal (normalized occupancy) was determined as 0.106. Turning to TAATACAA, the binding signal (normalized occupancy) is 0.0758.
